{"source": "paper PMC6919601", "about": "“Identification of Plasmodium dipeptidyl aminopeptidase allosteric inhibitors by high throughput screening” (PLoS ONE, 2019)", "note": "Out of some 110,000 compounds screened, about 230 (0.21%) showed an effect of 50% or more. Some of the results follow.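 Also: 30 min substrate incubation versus DMSO and 10 µM JCP410 controls.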", "data": [{"molecular_target": "DPAP1 (Plasmodium falciparum, UniProt Q8IIJ9)", "sequence (Q8IIJ9 whole entry, looked up)": "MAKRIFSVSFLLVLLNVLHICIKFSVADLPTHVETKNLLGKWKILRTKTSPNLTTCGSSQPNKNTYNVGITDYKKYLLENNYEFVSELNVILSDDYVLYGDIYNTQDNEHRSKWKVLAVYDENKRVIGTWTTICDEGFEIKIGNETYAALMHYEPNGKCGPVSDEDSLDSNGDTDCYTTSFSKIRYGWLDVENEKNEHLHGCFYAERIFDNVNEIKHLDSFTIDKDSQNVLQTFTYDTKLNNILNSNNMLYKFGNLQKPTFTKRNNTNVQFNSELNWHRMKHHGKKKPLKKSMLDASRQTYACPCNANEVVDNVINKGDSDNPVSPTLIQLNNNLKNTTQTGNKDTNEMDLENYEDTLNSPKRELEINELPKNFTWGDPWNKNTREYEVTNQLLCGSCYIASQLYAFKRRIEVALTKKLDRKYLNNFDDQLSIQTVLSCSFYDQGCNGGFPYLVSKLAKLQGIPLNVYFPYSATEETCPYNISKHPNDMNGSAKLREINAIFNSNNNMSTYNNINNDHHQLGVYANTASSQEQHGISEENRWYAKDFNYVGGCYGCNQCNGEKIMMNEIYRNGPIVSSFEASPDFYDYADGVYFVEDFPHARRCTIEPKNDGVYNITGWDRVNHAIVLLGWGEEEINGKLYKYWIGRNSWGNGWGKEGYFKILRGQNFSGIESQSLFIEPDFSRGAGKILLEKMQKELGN", "assay": "primary screen, percent inhibition; read by cleavage of a fluorogenic dipeptide substrate; higher = more effect of the substance", "design": "species or system P. falciparum D10 trophozoite lysates; single well", "procedure": "HTS was performed in black 384-well plates. The first and last two columns of each plate contained our negative (DMSO) and positive (10 μM JCP410) controls, and the 20 central columns the test compounds at 10 μM. Compounds were first diluted 50-fold into assay buffer (50 mM sodium acetate, 5 mM MgCl2, 10 mM β-mercaptoethanol, and 0.1% CHAPS, pH 5.5) from a 10 mM DMSO stock plates. One microliter of this 200 μM intermediate stock plate was dispensed into the assay plate. […] After 30 min, the reaction was quenched with 20 μL of 0.5 M acetic acid, and the fluorescent intensity measured at 523 nm (λex = 492 nm) using an Analyst HT multimode plate reader (Molecular Devices).", "units": {"% Inhibition @ 10 uM": "%"}, "values": [{"smiles": "CCc1ccccc1NC(=O)CN(C1CCCCC1)S(C)(=O)=O", "% Inhibition @ 10 uM": -4.66}, {"smiles": "O=C(O)c1cccc(N2C(=O)c3cccc4cccc(c34)C2=O)c1", "% Inhibition @ 10 uM": 8.19}, {"smiles": "Cc1ccccc1OCc1nn2c(Cn3cnc4ccccc43)nnc2s1", "% Inhibition @ 10 uM": -0.45}, {"smiles": "O=c1c(CN2CCSCC2)coc2c(Cl)cc(Cl)cc12", "% Inhibition @ 10 uM": -7.93}, {"smiles": "CCNS(=O)(=O)c1ccc(-c2cccc(C(=O)N[C@@H](CC(C)C)C(=O)NCC#N)c2)s1", "% Inhibition @ 10 uM": -1.82}, {"smiles": "COC(=O)C1=CN(Cc2ccc(F)cc2)C=C(C(=O)OC)C1c1ccc(OC)c(Br)c1", "% Inhibition @ 10 uM": 1.86}, {"smiles": "Cc1cc(C)n2nc3nc(N4CCOCC4)nc(-c4ccccc4)c3c2n1", "% Inhibition @ 10 uM": 3.34}, {"smiles": "c1ccc(-c2cc3ccsc3o2)cc1", "% Inhibition @ 10 uM": 16.9}, {"smiles": "CCN(CC)CCNC(=O)Cn1nc(C)n2c(cc3cc(C)ccc32)c1=O", "% Inhibition @ 10 uM": 0.0198}, {"smiles": "CC(=O)c1c(C)nc2ccc(Cl)cc2c1-c1ccccc1", "% Inhibition @ 10 uM": -4.32}, {"smiles": "Cc1ccc(S(=O)(=O)N2CCC(C(=O)NCc3ccncc3)CC2)cc1", "% Inhibition @ 10 uM": -3.74}, {"smiles": "O=C1/C(=C/c2ccc([N+](=O)[O-])cc2)N2CCC1CC2", "% Inhibition @ 10 uM": -3.48}, {"smiles": "O=c1oc2c(cc(NS(=O)(=O)c3ccc(F)cc3)c3ccccc32)s1", "% Inhibition @ 10 uM": -2.54}, {"smiles": "O=C(ON/C(=N/Cc1ccccc1)c1ccc(Cl)cc1)c1cccs1", "% Inhibition @ 10 uM": -0.597}, {"smiles": "CC1C(C#N)=C(N)OC2=C1C(=O)CC(C)(C)C2", "note": "(centres unmarked)", "% Inhibition @ 10 uM": -2.51}, {"smiles": "COc1ccc(Nc2nc(NCCO)c3ccccc3n2)c(OC)c1", "% Inhibition @ 10 uM": -2.65}, {"smiles": "CCOC(=O)N1CCC(NC(=O)CCc2c(C)nc3c(-c4ccc(F)cc4)c(C)nn3c2C)CC1", "% Inhibition @ 10 uM": -2.25}, {"smiles": "CCCCN(CC)S(=O)(=O)c1ccc2nc(O)cc(C(=O)NCCOC)c2c1", "% Inhibition @ 10 uM": -4.97}, {"smiles": "CCOC(=O)N1CCC(NC(=O)C2CCN(Cc3nc(-c4ccccc4C)oc3C)CC2)CC1", "% Inhibition @ 10 uM": -10.7}, {"smiles": "CCCN1CCN(C(=O)c2[nH]c3cc(OC)ccc3c2Sc2ccccc2)CC1", "% Inhibition @ 10 uM": -3.76}, {"smiles": "COc1cc(C(=O)Nc2cccc(C)c2C)cc(OC)c1OC", "% Inhibition @ 10 uM": -0.872}, {"smiles": "CN(Cc1ccco1)C(=O)CCNS(=O)(=O)c1cc(Br)cnc1N", "% Inhibition @ 10 uM": -1.56}, {"smiles": "CC(C)(C)c1csc(NC(=O)c2ccco2)n1", "% Inhibition @ 10 uM": -1.56}, {"smiles": "N#Cc1c2n(c3c(=O)n(Cc4ccccc4)cnc13)CCCCC2", "% Inhibition @ 10 uM": 4.16}, {"smiles": "CCOc1ccc(C(=O)Nc2cc(Cl)ccc2Cl)cc1", "% Inhibition @ 10 uM": -0.63}, {"smiles": "CCO/C(O)=C1\\C(C)=NC2=C(C(=O)CC(C)(C)C2)C1c1cccc(Cl)c1", "note": "(centres unmarked)", "% Inhibition @ 10 uM": 1.57}, {"smiles": "CCCCOc1ccc(/C=C2/SC(=O)N(CN3CCOCC3)C2=O)cc1", "% Inhibition @ 10 uM": -4.21}, {"smiles": "COc1ccc(/C=c2\\sc3nnc(-c4cc(OC)c(OC)c(OC)c4)n3c2=O)cc1", "% Inhibition @ 10 uM": 1.63}, {"smiles": "CCOc1ccc(C(=O)Nc2ccc(S(N)(=O)=O)cc2)cc1", "% Inhibition @ 10 uM": 0.147}, {"smiles": "COCCCNC(=O)c1sc2nc(-c3ccccc3)cn2c1C", "% Inhibition @ 10 uM": -1.89}, {"smiles": "O=C(NCc1ccco1)c1ccc(COCC(F)(F)F)cc1", "% Inhibition @ 10 uM": 2.1}, {"smiles": "CCOC(=O)C1CCCN(C2CCN(CCc3ccccc3)CC2)C1", "note": "(centres unmarked)", "% Inhibition @ 10 uM": -7.02}, {"smiles": "CC(=O)c1cccc(Oc2ncnc3sc4c(c23)CCCC4)c1", "% Inhibition @ 10 uM": -2.42}, {"smiles": "CNC(=O)C1CCN(S(=O)(=O)c2ccc(C)cc2)CC1", "% Inhibition @ 10 uM": 0.161}, {"smiles": "Nc1cccc(NC(=O)c2ccc(Cl)cc2Cl)c1", "% Inhibition @ 10 uM": -7.11}, {"smiles": "CCOc1ccc(C2C3=C(O)CC(c4ccc(Cl)cc4)CC3=NC(C)=C2C(=O)OC)cc1OC", "note": "(centres unmarked)", "% Inhibition @ 10 uM": 0.146}, {"smiles": "CC(C)C[C@H](NC(=O)c1ccccc1-c1ccc(C(F)(F)F)cc1)C(=O)NCC(=O)NC(C)(C)C", "% Inhibition @ 10 uM": 22.9}, {"smiles": "CCCS(=O)(=O)N1CCCC(C(=O)NCC2CCCO2)C1", "note": "(centres unmarked)", "% Inhibition @ 10 uM": 1.62}, {"smiles": "CCSC1=C(C#N)C(c2sccc2C)CC(=O)N1", "note": "(centres unmarked)", "% Inhibition @ 10 uM": 4.11}, {"smiles": "Cc1nc2ccn(Cc3cccs3)c(=O)c2cc1C(=O)NCCC1=CCCCC1", "% Inhibition @ 10 uM": -0.12}, {"smiles": "COc1ccc(OC)c(C2C=C(c3ccc(Cl)cc3)Nc3nnnn32)c1", "note": "(centres unmarked)", "% Inhibition @ 10 uM": 0.0842}, {"smiles": "Cc1ccc(-c2cc(C(=O)NCc3ccc(S(N)(=O)=O)cc3)c3ccccc3n2)cc1C", "% Inhibition @ 10 uM": -4.77}, {"smiles": "CC1(C)CC(O)c2ccccc2O1", "note": "(centres unmarked)", "% Inhibition @ 10 uM": 1.42}, {"smiles": "Cc1nc(CSc2cc(C)c3ccccc3n2)cs1", "% Inhibition @ 10 uM": 2.38}, {"smiles": "CCCCN(C(=O)c1ccc(Cl)cc1)C1=CC2CCC(C1)N2C", "note": "(centres unmarked)", "% Inhibition @ 10 uM": 2.25}, {"smiles": "C(=C\\c1ccccc1)/CN1CCN(C2CC3CCC2C3)CC1", "note": "(centres unmarked)", "% Inhibition @ 10 uM": -0.0908}, {"smiles": "COc1ccc2nc(NC(=O)Cn3cccc3)sc2c1", "% Inhibition @ 10 uM": 0.981}, {"smiles": "COc1cc(Cc2nnc(C(=O)NCCC3=CCCCC3)o2)cc(OC)c1OC", "% Inhibition @ 10 uM": 3}, {"smiles": "COCCCN1C(=O)S/C(=C/c2c[nH]c3ccc(Br)cc23)C1=O", "% Inhibition @ 10 uM": 2.4}, {"smiles": "CCOc1ccc(NC(=O)Cc2ccc(F)cc2)cc1", "% Inhibition @ 10 uM": -3.26}]}]}
